Data as given in PubChem BioAssay AID485344 (National Center for Advancing Translational Sciences (NCATS), 2010).
The campaign covered roughly 340,000 compounds. About 6,900 (2%) were called active. No stated cut-off is given here; in the data, active means inhibition above about 30%; inactive means below that, where a call was filed. Only a part is listed here, and it is no random draw. Where no call is shown, the source filed none.

biological target: D(2) dopamine receptor (Homo sapiens) (UniProt P14416); assay: HTS Assay for Allosteric Antagonists of the Human D2 Dopamine Receptor: Primary Screen for Antagonists; conditions: HEK293 TREx D2 cells, calcium flux, dopamine EC80; at 10 µM; stronger effect = higher value; further: 0% is about no effect
UniProt P14416, sequence (P14416 whole entry, looked up): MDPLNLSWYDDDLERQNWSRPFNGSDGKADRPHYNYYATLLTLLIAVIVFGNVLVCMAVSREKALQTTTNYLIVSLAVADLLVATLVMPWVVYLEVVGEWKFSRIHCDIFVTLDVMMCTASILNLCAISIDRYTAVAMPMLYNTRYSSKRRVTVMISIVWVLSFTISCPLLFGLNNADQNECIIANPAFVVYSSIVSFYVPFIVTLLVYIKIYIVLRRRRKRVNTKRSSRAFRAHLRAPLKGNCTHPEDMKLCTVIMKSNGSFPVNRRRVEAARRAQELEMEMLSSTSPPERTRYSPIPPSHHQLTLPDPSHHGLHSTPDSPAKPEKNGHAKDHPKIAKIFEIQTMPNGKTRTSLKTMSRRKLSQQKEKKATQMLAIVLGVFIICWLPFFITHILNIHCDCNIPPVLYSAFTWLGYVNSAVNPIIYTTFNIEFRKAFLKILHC
Method in brief: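 HEK293 T-REx D2 cells, tet-induced, calcium dye no-wash. Cpd pintool add, 180 s kinetic, then EC80 DA, 180 s kinetic. Ca flux read.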

Compound | inhibition
COc1ccc(CC(=O)N2CC(=O)Nc3ccc(Br)cc3C2c2ccc(F)cc2)cc1OC (stereo not drawn) | -26.1%
O=C(Nc1cc(C(F)(F)F)ccc1N1CCOCC1)c1cncc(Br)c1 | active: 30.9%
CC(C)(C)c1ccccc1OCCOCCN1CCCCCC1 | active: 31.3%
COc1ccc(Cn2c(C(=O)O)c(CNC3CCC(C)CC3)c3ccc(C)cc32)cc1 (stereo not drawn) | -0.0792%
COc1cc(C(=O)N2CCC(c3ccncc3)CC2)cc(OC)c1OC | -6.7%
COCCCNC(=O)CSc1nc2nc(C)c(Cc3ccccc3Cl)c(C)n2n1 | 2.2%
CC(=O)N1CCCc2cc(S(=O)(=O)NCc3ccc(N(C)C)cc3)ccc21 | -15.7%
Cc1ccc2c(c1)N(C(=O)N1CCC(C(=O)NC3CCCCCC3)CC1)CCO2 | -1.26%
Cc1ccc(-n2ncc3c(N4CCN(C)CC4)ncnc32)cc1 | -28%
COc1cc(OC)cc(C(=O)NCc2ccc3c(c2)CCN3C(=O)c2ccccc2)c1 | 3.59%
CCOc1ccc(NC(=O)Nc2cc(C(C)C)ccc2C)cc1 | active: 31.2%
CN(C)c1ccc(-c2nc(-c3ccncc3)no2)cc1[N+](=O)[O-] | 16.2%
CCCOc1ccc(C(=O)Nc2ccc(NC(=O)c3cccc(Cl)c3)cc2)cc1 | -1.46%
Cc1ccc(C)c(N2CCN(C(=O)c3cc(S(=O)(=O)N4CCCC4)c[nH]3)CC2)c1 | 20.5%
COc1cccc(Nc2cc(-c3ccccc3)nc(C)n2)c1 | -10.1%
CCc1ccc(S(=O)(=O)Nc2cc(-c3cn4ccccc4n3)ccc2C)cc1 | 26.1%
S=c1nc(-c2ccccc2)n(CCCn2ccnc2)c2c1CCCC2 | active: 39.1%
COc1ccc(C)c2sc(N(Cc3cccnc3)C(=O)COc3ccccc3)nc12 | 24.8%
CC(C)(C)SCCNC(=O)CN(c1ccccc1)S(=O)(=O)c1ccc(F)cc1 | active: 32.2%
Cc1ccc(-c2cn3c(n2)sc2cc(C(=O)NCc4cccs4)ccc23)cc1 | 22.2%
CCC1CN(C(=O)N2CCC(C(=O)NCCc3ccc(C)cc3)CC2)c2ccccc2O1 (stereo not drawn) | 8.55%
CCCCNC(=O)Cn1c(=O)cc(C)c2c(C)nn(-c3ccc(CC)cc3)c21 | 6.65%
Cc1oc(-c2ccccc2)nc1CSc1nnc(C)n2c1cc1sccc12 | 18.7%
CCOCCCNC(=O)CCC(=O)NNc1nc2ccccc2c2nc(-c3ccccc3)nn12 | -9.88%
O=C(NCc1cccc(Br)c1)C1CCN(C(=O)c2sccc2-n2cccc2)CC1 | 6.42%

Compound | inhibition
Cc1ccc(-n2nc(CO)c(C(=O)NCC(c3ccccc3)c3ccccc3)n2)cc1 | 16.7%
O=C(CCc1nnc2n(Cc3ccccc3Cl)c(=O)c3ccccc3n12)Nc1ccc(F)c(F)c1 | 0.391%
CCCCN1C(=O)C2C(C(=O)Nc3cccc(OC)c3)C3C=CC2(O3)C1C(=O)NC1CCCCC1C (stereo not drawn) | active: 35.8%
CCc1sc(Nc2ccc(C)cc2Br)nc1-c1cc2cccc(OC)c2oc1=O | 5.54%
CC(=O)NCCNc1nc2c(-c3ccc(C)cc3)nnn2c2ccccc12 | -9.96%
CCCN(CCC)C(=O)Cn1c(=O)n(-c2ccc(C)cc2)c(=O)c2ccc(C(=O)NCc3ccccc3Cl)cc21 | -2.21%
CNC(=O)C1CCN(Cc2cc3ccccc3n2Cc2ccccc2C)CC1 | 24.1%
CCOc1ccc(OCC)c(NC(=O)C(NS(=O)(=O)c2ccc(Br)s2)c2ccccc2)c1 (stereo not drawn) | -1.71%
COc1cccc(CNC(=O)CN2C(=O)CCCc3ccccc32)c1OC | 21.2%
Nc1c(-c2nc(-c3cccs3)no2)nnn1-c1cccc(F)c1 | -0.655%
CCOC(=O)c1cnc2c(C)cccc2c1NCCc1ccc(OC)c(OC)c1 | -13.2%
CCc1ccc(NC(=O)c2ccc3oc(=O)n(Cc4ccccc4)c3c2)cc1 | 18.4%
Cc1ccc(C)c(CN2C(=O)c3ccccc3S(=O)(=O)c3ccc(C(=O)N4CCCC4)cc32)c1 | -8.71%
CCN(c1ncnc2c1cnn2-c1cc(Cl)ccc1C)C1CCCCC1 | -19.6%
COc1cccc(-n2cc(C(=O)Oc3cccc(C(F)(F)F)c3)c3ccccc3c2=O)c1 | 27.4%
COC(C[C@H](O)C[C@H](O)[C@H](C)OCc1ccccc1)OC | active: 37.8%
CC(C)OC(=O)C(CC(=O)O)NCc1ccccc1 (stereo not drawn) | active: 68.2%
CCc1noc(C)c1C(=O)NNC(=O)c1ccc(Br)cc1 | active: 36.7%
Cc1ccc(O)c(NC(=O)c2noc3c2CCCCC3)c1 | 0.384%
CC(=O)N1c2ccccc2CC1C(=O)N1CCN(c2cccc(Cl)c2)CC1 (stereo not drawn) | -0.898%
O=C(CC1C(=O)N(c2ccc(F)cc2)C(=O)N1Cc1ccc2c(c1)OCO2)Nc1ccc(F)cc1 (stereo not drawn) | 2.57%
Cc1cc2c(cc1S(=O)(=O)CCC(=O)NC1CCC(C)CC1)OCC(=O)N2 (stereo not drawn) | -23.3%
Cc1ccc(-c2nnc(NC(=O)c3ccc4c(c3)OCCO4)o2)c(C)c1 | 15.5%
O=C1CC(c2nnc(Cc3ccc(Cl)cc3)o2)CN1c1ccccc1 (stereo not drawn) | -2.01%
COc1ccccc1-c1nnc2n(CCc3ccccc3)c(=O)c3ccccc3n12 | 16.7%

Compound | inhibition
O=C(C[n+]1cc(-c2ccccc2)n2c1CCC2)N1c2ccccc2Sc2ccccc21 | active: 36.8%
Cc1ccc(C)c(Cn2c(=O)n(Cc3ccc(C(=O)NC4CCN(Cc5ccccc5)CC4)cc3)c(=O)c3ccccc32)c1 | 18.9%
Cc1cc2nc(-c3ccc(Cl)cc3)cc(C(F)(F)F)n2n1 | 0.554%
O=S(=O)(NCCc1csc2nc(-c3ccc(Cl)cc3)nn12)c1ccc(Oc2ccccc2)cc1 | -4.24%
Cc1ccccc1-c1nc(C(N)=O)c2c(n1)n(-c1ccc3c(c1)OCO3)c(=O)n2C | 5.52%
CN(C)S(=O)(=O)c1ccc2c(c1)N(CC(=O)NCc1cccc(Br)c1)C(=O)CS2 | 12.3%
O=C(NCc1ccco1)C1CCN(C(=O)N2CCOc3ccc(Cl)cc32)CC1 | -23.4%
COc1ccc(S(=O)(=O)n2nc(C)c(S(=O)(=O)N3CCCCCC3)c2C)cc1OC | 22.2%
COc1ccc(Cl)cc1S(=O)(=O)N1CCN(Cc2cccc(F)c2)CC1 | 6.83%
CCCOc1ccc(C(=O)N(Cc2cccs2)c2ccc(C)cc2)cc1 | 2.75%
COc1ccc(-c2c3c(nc4sc(C(=O)Nc5ccc(F)cc5)c(N)c24)CC(C)(C)CC3=O)cc1 | -0.661%
CCOC(=O)c1c(C)oc2ncnc(NCCCN3CCN(c4cc(C)ccc4C)CC3)c12 | 14.1%
CCOC(=O)c1ccc(NC(=O)C2CCN(C(=O)N3CC(C)Oc4ccc(C)cc43)CC2)cc1 (stereo not drawn) | 20.2%
COc1cc(Cl)c(C)cc1Nc1nc2ccccc2nc1NS(=O)(=O)c1ccccc1 | 3.03%
Cc1cccc(C(=O)Nc2ccc(-c3nc4cc(C(C)C)ccc4o3)cc2)c1 | -12.8%
Cc1ccc(N2CCN(C(=O)NCc3noc4ccccc34)CC2C)cc1 (stereo not drawn) | -17.1%
COc1ccccc1N1CCN(C(=O)c2cnn(-c3ccc(C)c(C)c3)c2C2CCN(C(=O)OC(C)(C)C)CC2)CC1 | 8.58%
CCCCC(CC)CNC(=O)c1ccc2c(=O)n(CCOC)c(=O)[nH]c2c1 (stereo not drawn) | 25.7%
CC(C)(C)c1ccc(C(=O)NCC(c2cccs2)S(=O)(=O)c2ccc(F)cc2)cc1 (stereo not drawn) | 28%
CC(=O)c1cccc(S(=O)(=O)N2CCN(c3ccccc3F)CC2)c1 | 14.9%
O=C(CCC(=O)N1CCc2ccccc21)Nc1ccccc1 | active: 36.1%
CCc1sc(Nc2ccc(Cl)cc2)nc1-c1cc2cccc(OC)c2oc1=O | -9.81%
COc1ccc(-c2noc(N3CCN(c4cccc(Cl)c4)CC3)n2)cc1OC | -4.18%
CC(C(=O)Nc1ccc(F)c(Cl)c1)N1Cc2ccccc2C1=O (stereo not drawn) | -18.1%
Cc1cc(OCC(=O)Nc2cc(-c3nc4ccccc4[nH]3)ccc2C)ccc1Cl | -2.24%

Compound | inhibition
CCSc1oc(-c2ccc(F)cc2)nc1S(=O)(=O)c1ccc(C)cc1 | -23.3%
CCOc1ccc(C(=O)CSc2nnc3cc(C)c4ccccc4n23)cc1 | 13.8%
Cc1ccccc1C(=O)Nc1nnc(SCc2cc(=O)n3ccccc3n2)s1 | -12.2%
CCOc1cc(C(=O)Nc2nnc3n2CCS3)cc(OCC)c1OCC | -5.24%
COc1ccccc1CNC(=O)COc1cc(=O)n(C)c2ccccc12 | -3.37%
COc1ccc(NC(=O)CCN2CCN(CCO)CC2)c(OC)c1 | -6.29%
CCCCn1c(N)c(N(CC(C)C)C(=O)C2CC(=O)N(c3ccc4c(c3)OCCO4)C2)c(=O)[nH]c1=O (stereo not drawn) | active: 39.5%
O=C(Nc1ccc2nc(SCc3ccccc3)sc2c1)c1cccc(F)c1 | 2.49%
COc1ccc(OCCSc2nc(C)c(Cc3ccccc3)c(=O)[nH]2)cc1 | -16.6%
COc1ccccc1Cn1cc(C(=O)c2ccc(Cl)cc2)c(=O)c2cc3c(cc21)OCCO3 | -4.72%
COc1ccc(Oc2nc3c(c(=O)n(C)c(=O)n3C)n2Cc2ccccc2Cl)cc1 | -11.2%
Cc1ccc(CN2CCC(CNC(=O)c3cc4ccc5cccnc5c4[nH]3)CC2)cc1 | -14.7%
CCOc1cc2sc(N3CCC(C(=O)Nc4ccccc4Cl)CC3)nc2cc1Br | 1.66%
CN(C)C(CNC(=O)c1cccc(C(F)(F)F)c1)c1ccco1 (stereo not drawn) | active: 31.3%
Cc1ccc(-c2nn(CC(=O)NC3CCCC3)c3c2cnc2ccc(F)cc23)cc1C | -0.32%
Cc1cc(S(=O)(=O)C(CNC(=O)COc2ccccc2)c2cccs2)ccc1F (stereo not drawn) | 8.92%
COc1ccc(OC)c(CNC(=O)c2cc3cc4ccc(OC)cc4nc3o2)c1 | 1.07%
COc1ccc(-c2noc(COc3cc(C)c(Br)c(C)c3)n2)cc1OC | -10.9%
Cc1cc(NC(=O)c2ccccc2Cl)ccc1NC(=O)c1ccccc1 | 8.01%
COc1ccccc1OCc1ccc(C(=O)N/N=C/c2ccco2)cc1 | active: 43.6%
COC(=O)[C@@H](N)Cc1ccc(O)c(O)c1 | active: 80.9%
Cc1ccc(C(=O)/C=C/c2cn(CC(O)CN3CCc4ccccc43)c3ccccc23)cc1 (stereo not drawn) | 2.53%
Cc1cc(-n2c(C)nc3ccccc3c2=O)ccc1NC(=O)c1ccc(C)c([N+](=O)[O-])c1 | 12.2%
